# Source: PubChem BioAssay AID463173 (ICCB-Longwood Screening Facility, Harvard Medical School, 2010)
# Among all 52,000 compounds or so, about 4,300 (8.3%) were called active. Cut-off read from the data, not from the text of the source: active = survival mostly below about 52% (no sharp cut-off); inactive = mostly above about 56%. This is one part of the list.
# System: DeltatarO mutant
# Experiment: S. aureus survival, RN4220 and DeltatarO strains – OD600, teichoic acid synthesis inhibitors, primary screen (AID 463173)
# Details: S. aureus RN4220 wild type/DeltatarO growth, OD600, 18 h, stronger effect = lower value, screened at 18.75 µg/mL (by protocol)
row,SMILES,survival
1,CC(C)c1ccc(-c2noc(C3CCCN(S(C)(=O)=O)C3)n2)cc1 (centres undefined),inactive: 103%
2,COc1ccc(NC(=O)CC2SC(=Nc3ccccc3)N(CCO)C2=O)cc1 (centres undefined),inactive: 95%
3,O=C(Nc1ccc(F)cc1)c1ccc(CN2CC(=O)N3CCCCC3C2=O)cc1 (centres undefined),active: -4%
4,O=C(N/N=C1\SCC(=O)N1CCc1ccccc1)c1cccs1,inactive: 88%
5,CC(C)c1cc(C(=O)NCc2ccc(F)cc2)no1,inactive: 54%
6,CCS(=O)(=O)n1nc(-c2ccco2)nc1NCc1ccc(C(C)C)cc1,inactive: 77%
7,Cc1ccc(-c2nnn(CC(=O)N(c3ccccc3)C(C(=O)NCc3ccccc3)c3ccncc3)n2)o1 (centres undefined),inactive: 93%
8,CCc1ccccc1NC(=O)c1nn(-c2ccc(C)cc2)c(=O)c2c1c1ccccc1n2C,inactive: 140%
9,Cc1cc(C)nc(SC2=CS(=O)(=O)c3ccccc32)n1,inactive: 88%
10,O=C(Nc1nccs1)c1ccc(S(=O)(=O)NCC2CCCCC2)cc1,inactive: 52%
11,Nc1cc(N)nc(SCC(=O)N2CCc3ccccc32)n1,inactive: 62%
12,CCCOc1ccc(-c2nonc2NC(=O)c2ccco2)cc1OCCC,inactive: 111%
13,CC1CCN(C(=O)c2cc3c(=O)n(C)c4cc(Cl)ccc4c3s2)CC1,inactive: 125%
14,Cc1nc(-c2ccc(S(=O)(=O)N3CCN(c4cccc(C(F)(F)F)c4)CC3)cc2)co1,inactive: 67%
15,CCOc1cc(/C=C2\SC(=NC)N(C)C2=O)c(Br)cc1OC(C)=O,inactive: 55%
16,Cc1cc(Br)cc(C)c1NC(=O)c1sc2ncn(Cc3cccc(F)c3)c(=O)c2c1C,inactive: 91%
17,Cc1ccc(S(=O)(=O)c2nnn3c2nc(NC2CCCCCC2)c2sccc23)cc1C,active: -4%
18,CCCOc1cccc(C2c3c(oc4ccc(F)cc4c3=O)C(=O)N2CCCN2CCOCC2)c1 (centres undefined),inactive: 80%
19,Cc1ccc(CN(Cc2ccco2)C(=O)c2ccccc2Br)o1,inactive: 47%
20,COc1ccc(-c2cn3c(n2)sc2cc(C(=O)NCCC4=CCCCC4)ccc23)cc1,inactive: 58%

row,SMILES,survival
1,O=c1c2cnn(-c3ccc(F)cc3)c2ncn1Cc1ccccc1Cl,inactive: 100%
2,Cc1cc(C)n(CCc2nc3c4ccccc4nc(SCc4ccc(F)cc4)n3n2)n1,inactive: 78%
3,Cc1ccc(CNC(=O)c2c[nH]c3ccc(S(=O)(=O)N4CCOCC4)cc3c2=O)cc1,inactive: 89%
4,CCOc1ccc(-c2nnn(CCC#N)n2)cc1OC,inactive: 96%
5,CCNC(=O)c1ccc(C)c(-n2c(C)nc3cccnc32)c1,inactive: 89%
6,Cc1ccc(NC(=O)Cn2c(=O)c3ccc(Cl)cc3n3nncc23)cc1,inactive: 89%
7,COc1cccc(-c2csc(-c3c(N)c(C(=O)c4ccc5c(c4)OCO5)n4ccccc34)n2)c1,inactive: 70%
8,CCOc1ccc(C2C(C(=O)Nc3ccccc3)=C(C)Nc3nc(-c4ccccc4)nn32)cc1OC (centres undefined),inactive: 90%
9,CCCNC(=O)c1ccc(N2C(=O)c3ccccc3C2=O)cc1,inactive: 80%
10,O=C(Cn1c(-c2cccs2)cc2ccccc21)N1CCN(c2ccc(Cl)cc2)CC1,inactive: 80%
11,COc1cc(Cl)c(C)cc1NC(=O)c1cc(S(=O)(=O)N2CCCC2)ccc1F,active: 37%
12,Cc1ccc(Cc2cnc(NC(=O)c3ccc4c(c3)CC(c3ccccc3)OC4=O)s2)cc1 (centres undefined),inactive: 107%
13,O=C(NC1CC(=O)N(c2ccc(F)cc2)C1)C1CCCC1 (centres undefined),inactive: 76%
14,Cc1c(C(=O)Nc2ccc(F)cc2F)oc2c1-c1nn(Cc3c(F)cccc3Cl)cc1CC2,inactive: 73%
15,CCOC(=O)c1c(NC(=O)c2ccc(C)cc2)sc2c1CCCCC2,active: -2%
16,COc1ccc(C)cc1NC(c1nnc(-c2ccccc2)o1)c1ccc(F)cc1Cl (centres undefined),active: -3%
17,CC(=O)c1ccc(S(=O)(=O)Nc2ccc(-c3cn4c(C)csc4n3)cc2)cc1,active: -5%
18,N#Cc1ccccc1NC(=O)CSc1nc(-c2ccccc2)cc(C(F)(F)F)c1C#N,inactive: 57%
19,Nn1c(-c2ccccc2)cn2c(cc3sccc32)c1=S,inactive: 99%
20,CCc1ccc(N2CC(c3nnc(NC(=O)c4ccco4)s3)CC2=O)cc1 (centres undefined),inactive: 84%

row,SMILES,survival
1,CCOC(=O)Cc1ccc(NC(=O)N(Cc2ccc(OC)cc2)C2CCN(C(C)=O)CC2)cc1,inactive: 88%
2,Nc1cc(N)nc(SCc2ccc(Cl)cc2)n1,inactive: 84%
3,CCOC(=O)c1c(NC(=O)/C(C#N)=C/c2ccc(OC)cc2)sc2c1CCC2,inactive: 86%
4,CC1(C)Cc2c(c(N3CCNCC3)[nH]c(=S)c2C#N)CO1,inactive: 114%
5,Cc1cccc(C)c1OCC(=O)N(Cc1ccccc1F)C1CCS(=O)(=O)C1 (centres undefined),inactive: 59%
6,CCc1ccc(NC(=O)c2sc(-n3nc(C)c(CCC(C)C)c3C)nc2C)cc1,inactive: 112%
7,COc1ccc(NC(=O)c2ccc3oc(=O)c(S(=O)(=O)c4ccc(F)cc4)cc3c2)cc1OC,inactive: 62%
8,Cc1cc(NC(=O)c2ccccc2F)ccc1-c1nc2ccccc2s1,inactive: 74%
9,Cc1ccc(-n2cnc3cc(C(=O)NCCC4=CCCCC4)ccc32)c(C)c1,inactive: 69%
10,COC(=O)c1ccc(S(N)(=O)=O)o1,inactive: 76%
11,CC1CCN(c2nc(-c3ccc(C(C)(C)C)cc3)nc3ccccc23)CC1,active: 6%
12,O=C(CSc1nc2ccsc2c(=O)n1-c1ccc(Cl)cc1)NCc1ccc(Cl)cc1,inactive: 91%
13,CCOc1ccc(NC(=O)c2cc3cc(C)ccc3n2C)cc1,inactive: 61%
14,CC(C)CNC(=O)Nc1cc(C(=O)NCc2ccc(C(C)C)cc2)ccc1N1CCCC1,inactive: 86%
15,CCC(=O)N1CCc2cc(S(=O)(=O)NCCC(=O)Nc3ccc(CC)cc3)ccc21,inactive: 78%
16,COC(=O)C1(c2ccccc2)NC(c2ccc(O)cc2)C2C(=O)N(c3ccc4c(c3)OCCO4)C(=O)C21 (centres undefined),inactive: 75%
17,CCN1C(=O)C(C(=O)NC(C)c2ccccc2)C2CC1(C)Oc1ccccc12 (centres undefined),inactive: 72%
18,Clc1ccc(-c2cc3ncc4c(n3n2)-c2ccccc2OC4)cc1,inactive: 81%
19,O=C(Nc1ccccc1-c1nc2ccccc2s1)c1ccc(F)cc1,inactive: 81%
